# Reference: PubChem BioAssay AID1346428 (National Center for Advancing Translational Sciences (NCATS), 2018)
# “And” between values parts separate entries of the source, which are not always exact repeats. Identical values can stand only once. The campaign covered roughly 48,000 compounds. About 1,200 (2.5%) were called active. About 2% were inconclusive and are not listed.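 Rule for the calls: active = activation of at least 60% and not above a set upper limit (about 1 call in 100 departs from these limits); inconclusive = activation of 40% to 60%, or above that upper limit; inactive = activation under 40%.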 This is one part of the list.
# Molecular target: Probable G-protein coupled receptor 32 (Homo sapiens) (UniProt O75388)
# UniProt O75388, sequence (O75388 whole entry, looked up): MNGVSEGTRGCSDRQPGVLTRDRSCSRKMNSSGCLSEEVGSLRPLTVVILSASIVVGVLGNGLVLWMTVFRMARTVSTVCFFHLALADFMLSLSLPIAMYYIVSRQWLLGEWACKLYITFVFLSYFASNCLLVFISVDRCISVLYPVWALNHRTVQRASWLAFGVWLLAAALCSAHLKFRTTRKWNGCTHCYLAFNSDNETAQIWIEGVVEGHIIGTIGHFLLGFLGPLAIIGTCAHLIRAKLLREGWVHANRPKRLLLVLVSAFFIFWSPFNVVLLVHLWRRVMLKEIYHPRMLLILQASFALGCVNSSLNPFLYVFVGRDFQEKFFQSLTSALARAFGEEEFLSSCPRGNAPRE
# Assay: qHTS for Agonists of Human Resolvin D1 Receptor DRV1; note: 0% is about no effect
# Conditions: CHO-K1 GPR32 beta-arrestin PathHunter luminescence, 90 min; at 76.9 µM; hits give high values; zero percent set by DMSO-only wells
# How it was run: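 PathHunter enzyme-fragment complementation, CHO-K1 GPR32 stable line; 2,500 cells/well, overnight attach; cpd 90 min 37 °C 5% CO2; detection reagent 1 h RT; chemiluminescence. DMSO = EC0.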
row,Structure (SMILES),activation
1,COc1ccc(NC(=O)C(NS(=O)(=O)c2cccc3nsnc23)C(C)C)cc1 (stereo unspecified),inactive: -47.6%
2,COc1ccc(NC(=O)c2cc3ccccc3o2)c(OC)c1,inactive: -9.37%
3,CCOC(=O)c1c(NC(=O)c2cc(-c3ccc(Br)cc3)on2)sc(C(C)=O)c1C,inactive: -9.84%
4,O=C(c1ccc(F)cc1)c1cn(Cc2ccccc2)c2cc3c(cc2c1=O)OCO3,inactive: -8.57%
5,Cc1oc(-c2ccc(C(=O)Nc3ccc(F)cc3)cc2)nc1COc1ccccc1,inactive: 28.7%
6,COc1ccc(C2=CC(c3cc(Br)ccc3F)n3c(nc4ccccc43)N2)cc1 (stereo unspecified),inactive: -41%
7,O=C(Nc1c(C(=O)N2CCN(c3ccccc3F)CC2)oc2ccccc12)c1cccc(F)c1,inactive: -8.39%
8,CC1CCCN(c2cc3c(cc2F)c(=O)c(S(=O)(=O)c2cccc(Cl)c2)cn3Cc2ccccc2)C1 (stereo unspecified),inactive: -7.51%
9,O=C(COc1ccccc1Cl)Nc1ccc(-c2nc3ccccc3s2)cc1,inactive: 5.36%
10,COc1ccc(CCNC(=O)C(=O)NCC(c2ccco2)S(=O)(=O)c2ccc(C)cc2)cc1 (stereo unspecified),inactive: 18.1%
11,CC(C)NC(=O)c1ccc(Cn2c(SCc3ccc(F)cc3)nc3cccnc32)cc1,inactive: 15%
12,O=C(CCn1c(=O)c2cccn2c2cccnc21)N1CCN(c2cccc(C(F)(F)F)c2)CC1,inactive: -9.04%
13,Cc1cccc(CS(=O)(=O)c2ncc(Cl)c(C(=O)Nc3nnc(C(C)C)s3)n2)c1,inactive: -9.43%
14,COc1ccc2c(c1)c(=O)c(S(=O)(=O)c1ccc(F)cc1)cn2Cc1ccccc1Cl,inactive: -5.09%
15,CC(C)(C)OC(=O)N1CCC(c2c(C(=O)N3CCN(c4ccccn4)CC3)cnn2-c2ccc(F)cc2)CC1,inactive: -13.9%
16,Cc1ccc(-c2cn3cccnc3n2)cc1NC(=O)Nc1ccc(F)cc1,inactive: -7.87%
17,O=C(c1ccc2c(c1)OCO2)c1cn(Cc2ccc(Cl)cc2)c2ccc(F)cc2c1=O,inactive: -18.7%
18,O=C(Cn1ncc2c1-c1ccccc1OC2)N1CCN(c2ccccc2)CC1,inactive: 15.4%
19,COCCNC(=O)CN1C(=O)c2cccnc2Sc2ccccc21,inactive: -7.68%
20,COc1cccc2c(C)cc3nnc(SCC(=O)Nc4ccc(C)cc4)n3c12,inactive: -34.3%
21,CC1CCC(NC(=O)c2ccc(CS(=O)(=O)c3ccc(Cl)cc3)o2)CC1 (stereo unspecified),inactive: -18.7%
22,CCCCOc1ccc(C(=O)N2CCCCC2CCN2CCOCC2)cc1 (stereo unspecified),inactive: 6.46%

row,Structure (SMILES),activation
1,CCN(CC)S(=O)(=O)c1ccc(C(=O)NCCSc2c(-c3ccc(F)cc3)[nH]c3ccccc23)cc1,inactive: -14.4%
2,CC(=O)c1ccc(NC(=O)CSc2nc(-c3ccc(C)cc3)nc3c2c(=O)n(C)c(=O)n3C)cc1,inactive: 0.398%
3,CCn1c(=O)cc(OCC(=O)N2CCN(c3ccc(C)cc3)C(C)C2)c2ccccc21 (stereo unspecified),active: 74.2%
4,Cc1cc(Cl)ccc1OCC(=O)N(Cc1sccc1C)C1CCS(=O)(=O)C1 (stereo unspecified),inactive: -16.9%
5,CC(C)OCCCNC(=O)CN1C(=O)c2cccnc2Sc2ccccc21,inactive: -11%
6,COc1ccc(CNC(=O)c2cnc(N(C)C)nc2)cc1,inactive: -9.76%
7,CCCOc1cccc(C(=O)N(Cc2sccc2C)C2CCS(=O)(=O)C2)c1 (stereo unspecified),inactive: -32.2%
8,Cn1c(=O)n(Cc2ccccc2)c(=O)c2c1nc1n2CCN1c1ccccc1,inactive: 4.56%
9,O=C(Cn1cc(SCc2c(F)cccc2Cl)c2ccccc21)N1CCCCC1,inactive: -18.2%
10,Cc1cccn2cc(-c3cccc(NC(=O)C(C)C)c3)nc12,inactive: 24.7%
11,CCN(CC)CCNC(=O)CN1N=C(c2ccc(OC)cc2)CCC1=O,inactive: 1.3%
12,COc1ccc(NC(=O)c2ccc(NC(=O)N3CCSc4ncccc43)cc2)cc1,inactive: 29.3%
13,COCCn1c(CNC(=O)c2cccc(C)c2)nc2cccnc21,inactive: -5.77%
14,COCCNC(=O)C1CCN(Cc2cc3ccccc3n2Cc2ccc(C)cc2)CC1,inactive: 24.6%
15,COc1ccccc1NC(=O)C1=C(C)Nc2nc(SCc3ccccc3)nn2C1c1cccc(O)c1 (stereo unspecified),inactive: 39.2%
16,COc1ccc(OC)c(NS(=O)(=O)c2ccc(-n3cccn3)cc2)c1,inactive: -3.74%
17,COc1ccc(NC(=O)c2nnn(Cc3nc(-c4cc(OC)c(OC)c(OC)c4)oc3C)c2C)cc1Cl,inactive: 8.89%
18,COc1ccccc1CNC(=O)c1ccc2[nH]c(C)c(C)c2c1,inactive: -1.46%
19,O=C(COc1ccc(F)cc1)Nc1nnc(S(=O)(=O)N2CCCC2)s1,inactive: 9.07%
20,COCCCNC(=O)Cn1c(=O)n(-c2ccc(C)c(C)c2)c(=O)c2c3c(sc21)CCCCC3,inactive: 26.4%
21,CCCCNC(=O)C(CC)Sc1nc2ccccc2c(=O)n1Cc1ccco1 (stereo unspecified),inactive: 3.46%
22,CCC(C)n1c(=O)c2sccc2n2c(CCCC(=O)NCc3ccccc3Cl)nnc12 (stereo unspecified),inactive: -6.08%

row,Structure (SMILES),activation
1,COc1cc(NC(=O)C2CCN(S(=O)(=O)Cc3ccccc3)CC2)c(OC)cc1Cl,inactive: 4.71%
2,COCCNC(=O)c1sc2ncccc2c1-n1c(C)ccc1C,inactive: -16.5%
3,NCCCCCC(=O)O,inactive: 0.744% and inactive: 0.13%
4,Cc1cc(C)n2nc(CNC(=O)c3c(F)cccc3F)nc2n1,inactive: -3.93%
5,Cc1ccc(C(=O)c2sc(Nc3ccccc3)c(S(=O)(=O)c3ccccc3)c2N)c(C)c1,inactive: -0.169%
6,CCOC(=O)c1cccc(NC(=O)Cn2c(=O)c3cccn3c3ccccc32)c1,inactive: -19.8%
7,Cc1cccc(N(C)S(=O)(=O)c2nnc(NC(=O)c3cccs3)s2)c1,active: 73.2%
8,Cc1c2cnn(CC(=O)N3CCN(c4ccccc4)CC3)c(=O)c2c(C)n1Cc1ccccc1Cl,inactive: -11.9%
9,CC1=C(C)C(=O)C(C(CCCCCC(=O)O)c2ccccc2)=C(C)C1=O (stereo unspecified),inactive: -3.01%
10,CC(=O)c1ccc(NC(=O)CCc2c(C)nc3c(c2C)c(=O)n(C)c(=O)n3C)cc1,inactive: -0.851%
11,CC(=O)C1=C(c2ccccc2)N(C(C)=O)n2c(nnc2C2CCCCC2)S1,inactive: -47.4%
12,CCCCN(C)CCCNC(=O)CN1N=C(c2ccc(OC)cc2)CCC1=O,inactive: 11.3%
13,CSc1ncc(Cl)c(C(=O)Nc2ccc(S(=O)(=O)Nc3nccc(C)n3)cc2)n1,inactive: -38.9%
14,Cc1cc(C)cc(-n2cnc3cc(C(=O)NC4CCCCCC4)ccc32)c1,inactive: -25%
15,Cc1ccc(CCNC(=O)c2ccc3[nH]c(C)c(C)c3c2)cc1,inactive: 2.33%
16,CCn1cc2nc(SCC(=O)Nc3ccc(C)cc3)n(Cc3ccc(C)cc3)c(=O)c2n1,inactive: -29.4%
17,O=C(NCc1ccccc1F)c1sc2ncccc2c1-n1cccc1,inactive: -17.4%
18,CCOc1ccc(C2=NC(c3cccs3)=Nc3ccc(CC)cc3N2)cc1OCC,inactive: -33.4%
19,O=S(=O)(NCCS(=O)(=O)N1CCN(c2cccc(Cl)c2)CC1)c1ccc(F)cc1,inactive: -15.5%
20,CCN(CC)c1ccc(NC(=O)CN2CCN(c3ccccc3F)CC2)cc1,inactive: -12.7%
21,O=C(O)Cn1cnnn1,inactive: -15.7%
22,COC(=O)CN1C(=O)C(C)(C)c2cc(S(=O)(=O)Nc3ccc(Br)cc3F)ccc21,inactive: -17.9%

row,Structure (SMILES),activation
1,Cc1[nH]c2ccc(Br)cc2c1CCNC(=O)c1cc2ccccc2oc1=O,inactive: 1.18%
2,CC(=O)N1CCCc2cc(S(=O)(=O)N3CCCC(C(=O)Nc4ccc(C)cc4C)C3)ccc21 (stereo unspecified),inactive: -2.66%
3,CNCCc1ccccn1,inactive: -15.5%
4,COc1ccc(-n2nc3cc(C)c(NC(=O)c4ccc(-c5ccc(Br)cc5)o4)cc3n2)cc1,inactive: -6.14%
5,COc1cc(OC)cc(C(=O)Nc2cc3c(cc2N2CCOCC2)n(C)c(=O)n3C)c1,inactive: 6.99%
6,Cc1cc(C)n(CCc2nc3c4ccccc4nc(N4CCN(c5cccc(C)c5C)CC4)n3n2)n1,inactive: 13.1%
7,CC(=O)c1cccc(-n2c(=O)c3c4c(sc3n(Cc3cccc(C)c3)c2=O)CN(C(C)=O)CC4)c1,inactive: -4.87%
8,Cc1cccc(NC(=O)CN2C(=O)C(c3ccccc3)=NC23CCC(C)CC3)c1 (stereo unspecified),inactive: -12.7%
9,CCN(CC)CCNC(=O)C(=O)NCC(c1ccc2c(c1)OCO2)N1CCOCC1 (stereo unspecified),inactive: -6.19%
10,CCOc1ccc(-c2nnc(SCC(=O)NCc3ccccc3Cl)o2)cc1,inactive: -5.59%
11,CCCN1C(=O)c2[nH]nc(-c3ccccc3)c2C1c1cccc(O)c1 (stereo unspecified),inactive: -8.85%
12,O=C(CSc1cn(CC(=O)N2CCCCC2)c2ccccc12)NCc1ccccc1,inactive: -13.6%
13,COCc1cc(C)nc2c1C(=O)NC(c1ccc(C)cc1)N2Cc1ccccc1 (stereo unspecified),inactive: -11.9%
14,CCOc1ccc(CNC(=O)C2CCN(c3nnc(-n4c(C)ccc4C)s3)CC2)cc1,inactive: -15.7%
15,Cc1ccc(NC(=O)c2oc3ccccc3c2NC(=O)Cc2ccccc2)cc1,inactive: -0.428%
16,COc1ccccc1NC(=O)CSC1=Nc2ccccc2C2=NC(Cc3ccccc3)C(=O)N12 (stereo unspecified),inactive: -24.6%
17,COc1ccc2c(c1)CCc1sc(NC(=O)c3cccc(Br)c3)nc1-2,inactive: -20.2%
18,CCOc1ccc(S(=O)(=O)N2CCN(c3cccc(C(F)(F)F)c3)CC2)cc1OCC,inactive: -19.1%
19,CCOC(=O)N1CCc2c(sc3c2c(=O)n(Cc2ccccc2)c(=O)n3Cc2cccc(C)c2)C1,inactive: -11.7%
20,CCc1nc2c(cnn2-c2ccc(C)cc2)c(=O)n1Cc1ccccc1,inactive: -0.939%
